The target in assay [1] is T1, Bem1-mCherry-Cub-RGFP (S. cerevisiae) (UniProt P29366).
T1 sequence: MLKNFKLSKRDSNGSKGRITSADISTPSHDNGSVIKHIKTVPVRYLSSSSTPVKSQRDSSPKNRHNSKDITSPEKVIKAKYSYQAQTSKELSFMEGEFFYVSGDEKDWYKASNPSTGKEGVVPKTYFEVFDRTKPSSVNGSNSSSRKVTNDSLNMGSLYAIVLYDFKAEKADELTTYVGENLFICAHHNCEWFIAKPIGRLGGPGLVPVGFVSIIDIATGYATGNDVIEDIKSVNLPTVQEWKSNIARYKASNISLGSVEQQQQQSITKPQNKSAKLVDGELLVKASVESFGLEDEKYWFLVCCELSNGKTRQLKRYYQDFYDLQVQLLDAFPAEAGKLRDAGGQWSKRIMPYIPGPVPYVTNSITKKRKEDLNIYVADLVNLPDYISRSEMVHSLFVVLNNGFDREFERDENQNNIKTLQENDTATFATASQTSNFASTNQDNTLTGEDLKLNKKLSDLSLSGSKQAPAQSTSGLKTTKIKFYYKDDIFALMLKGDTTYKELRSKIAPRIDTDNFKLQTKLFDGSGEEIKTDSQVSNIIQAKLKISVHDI
The assay is described as follows: split reporter; SPLIFF as a9, measured at the cell front during bud site assembly and bud growth (PCDII).

Assay [2] deals with T1, Bem1-mCherry-Cub-RGFP (S. cerevisiae). The assay is described as follows: split reporter; SPLIFF as a9, measured at the bud neck from completion of acto-myosin ring contraction until abscission (PCDIII).
The target of assay [3] is T2, Bem1WK-Cub-RUra3 (S. cerevisiae) (UniProt P29366).
T2 sequence: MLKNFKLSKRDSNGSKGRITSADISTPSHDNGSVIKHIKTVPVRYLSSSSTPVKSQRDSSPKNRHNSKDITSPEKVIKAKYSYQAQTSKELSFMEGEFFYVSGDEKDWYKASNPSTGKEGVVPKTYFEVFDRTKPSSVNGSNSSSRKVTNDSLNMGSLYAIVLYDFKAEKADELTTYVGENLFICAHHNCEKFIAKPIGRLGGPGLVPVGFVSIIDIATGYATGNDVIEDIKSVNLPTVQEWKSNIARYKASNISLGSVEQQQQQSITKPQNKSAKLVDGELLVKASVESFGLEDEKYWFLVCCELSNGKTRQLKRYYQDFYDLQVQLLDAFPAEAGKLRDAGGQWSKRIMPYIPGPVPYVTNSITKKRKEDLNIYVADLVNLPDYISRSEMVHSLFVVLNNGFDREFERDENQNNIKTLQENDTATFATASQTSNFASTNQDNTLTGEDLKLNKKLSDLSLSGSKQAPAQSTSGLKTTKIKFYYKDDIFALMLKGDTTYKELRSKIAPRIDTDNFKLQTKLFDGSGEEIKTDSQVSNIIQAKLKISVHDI
The assay is described as follows: split reporter; split-ubiquitin (Split-Ub): a-cells with a Cub-RUra3 (CRU) fusion mated with α-cells with Nub fusions (P_CUP1), diploids as quadruplets on SD medium with 1 mg/ml 5-FOA and copper; growth = interaction; detects direct and indirect interactions.

Assay [4] has as its target T3, Bem1-Cub-RUra3 (S. cerevisiae) (UniProt P29366).
T3 sequence: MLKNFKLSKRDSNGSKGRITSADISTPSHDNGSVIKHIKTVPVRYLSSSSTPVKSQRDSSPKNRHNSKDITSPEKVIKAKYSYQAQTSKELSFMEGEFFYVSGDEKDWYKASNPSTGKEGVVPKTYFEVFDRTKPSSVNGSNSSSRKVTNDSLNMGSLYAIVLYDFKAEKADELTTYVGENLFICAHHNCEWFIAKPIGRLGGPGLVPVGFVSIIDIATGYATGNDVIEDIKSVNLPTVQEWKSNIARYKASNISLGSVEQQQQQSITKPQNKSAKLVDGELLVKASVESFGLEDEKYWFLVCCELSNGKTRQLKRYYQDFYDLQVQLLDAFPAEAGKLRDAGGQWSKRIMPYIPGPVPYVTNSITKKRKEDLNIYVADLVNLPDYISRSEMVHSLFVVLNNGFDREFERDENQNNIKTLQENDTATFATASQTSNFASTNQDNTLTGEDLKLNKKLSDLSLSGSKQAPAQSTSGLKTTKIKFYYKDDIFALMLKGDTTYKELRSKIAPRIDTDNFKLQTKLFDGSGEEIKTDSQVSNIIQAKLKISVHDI
The description is as above.

Assay [5] has as its target T1, Bem1-mCherry-Cub-RGFP (S. cerevisiae). The assay is described as follows: split reporter; SPLIFF (split-ubiquitin with mCherry-Cub-RGFP, CCG): a-cells with the CCG fusion mated with α-cells with Nub-HA fusions; conversion of CCG to CC measured by time-lapse microscopy at the site of cell fusion (PCDI); a significant positive slope = interaction.
For the next assay, the target named is T4, GST-Nbp2 (S. cerevisiae) (UniProt Q12163).
T4 sequence: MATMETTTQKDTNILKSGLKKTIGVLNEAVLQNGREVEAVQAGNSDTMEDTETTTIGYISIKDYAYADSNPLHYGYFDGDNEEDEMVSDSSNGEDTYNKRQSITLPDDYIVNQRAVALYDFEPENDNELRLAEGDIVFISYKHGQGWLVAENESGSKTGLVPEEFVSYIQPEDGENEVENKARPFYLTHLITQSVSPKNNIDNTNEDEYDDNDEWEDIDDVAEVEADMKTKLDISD
The assay is described as follows: pull-down; GST fusions immobilised on glutathione sepharose beads from E. coli extracts, incubated 1 h at 4°C with yeast cell extracts; glutathione eluates blotted (anti-GFP or anti-Myc); only the target purified.

No constants are given. Whether binding was seen depends on the method and setting. In cells and extracts the contact can be indirect. Some binding calls cover weakened binding; strength is not graded here. For some of these results: Tags and fused reporters may be left off the sequences shown.

B1: Nub-Ste20 (protein, UniProt Q03497 1-939)
chain: MSNDPSAVSELPDKDSLDNGISNDNERAMGGNGDGGDGLRLPRTTGTLNVNALQKGTNAAHEAGGYKSMDPAKNAETTNDDDNNVVSLDDPIQFTRVSSSSVISGMSSSMSPHSNIDETKSLEAVTPNINTSNITPDHSADNTFSTINASESDHQFNDTLLSKLSLTDSTETIENNATVKHQQPVASSTVNSNKSSTDIRRATPVSTPVISKPSMTTTPRQINSASHSLSNPKHKQHKPKVKPSKPEAKSKPVSVKKSFPSKNPLKNSSPPKKQTEKSYYSSSSKKRKSGSNSGTLRMKDVFTSFVQNIKRNSQDDKRASSSSNNSSSSSITTALRISTPYNAKHIHHVGVDSKTGEYTGLPEEWEKLLTSSGISKREQQQNMQAVMDIVKFYQDVTETNGEDKMFKTFNTTTGLPGSPQVSTPPANSFNKFPPSTSDSHNYGSRTGTPMSNHVMSPTLNTDSSSANGKFIPSRPAPKPPSSASASAPIIKSPVMNSAANVSPLKQTHAPTTPNRTSPNRSSISRNATLKKEEQPLPPIPPTKSKTSPIISTAHTPQQVAQSPKAPAQETVTTPTSKPAQARSLSKELNEKKREERERRKKQLYAKLNEICSDGDPSTKYANLVKIGQGASGGVYTAYEIGTNVSVAIKQMNLEKQPKKELIINEILVMKGSKHPNIVNFIDSYVLKGDLWVIMEYMEGGSLTDVVTHCILTEGQIGAVCRETLSGLEFLHSKGVLHRDIKSDNILLSMEGDIKLTDFGFCAQINELNLKRTTMVGTPYWMAPEVVSRKEYGPKVDIWSLGIMIIEMIEGEPPYLNETPLRALYLIATNGTPKLKEPENLSSSLKKFLDWCLCVEPEDRASATELLHDEYITEIAEANSSLAPLVKLARLKKVAENMDADEDNDDDNDNEHINKTNNCDDNNDSKETVNLDVTEDDKQK
For B1, the binding entry in assay [1] was “binds”; in assay [2] it was “binds”; in assay [3], “no binding”; in assay [4], “binds”; in assay [5], “binds”.

B2: Nub-Cla4 (protein, UniProt P48562 1-842)
chain: MSLSAAANKISDNDFQNIGPAPRPPSSNSQGRTCYNQTQPITKLMSQLDLTSASHLGTSTSKKKSGWVSYKDDGILSFIWQKRYLMLHDSYVALYKNDKQNDDAILKIPLTSIISVSRTQLKQYCFELVRCSDRNSVSSGSSSSLNVSSDSNSKKSIYIATKTESDLHSWLDAIFAKCPLLSGVSSPTNFTHKVHVGFDPETGSFVGMPTNWEKLLKHSRITGEDWNNNSAAVIQVLQFYQEYNGAGNPTNTLDKPQSGETSSSQKSLPNSYNDNKLRNNSVNSKSSSGVSSSMVSQRKTSQPPNTKSPVSLGSGSLPPINTKLPTSQSNIPRHLQNVPNQQYPKMRNGHSPTNGQFPRGPMHPNNSQRSLQQQQQQQQQQKQQHQQYPYHHQGPSPSPSPSPSPLNPYRPHHNMINPYSKQPQSPLSSQSTQNQAIPRYAQNSSPTAAHFQPQRTAPKPPISAPRAPYPSNQNATSNTHVQPVAPKNDQSTPQTMRQAPKRPDADVAQPGGVAKPKKPARPTMSTAEIMSKLKKVTVNADPSQCFKVIEKAGQGASGSVYLAERTHIPTESNMIELINNDIDEPHVGDKVAIKQMVLSKQPRKELIVNEILVMKDSRHKNIVNFLEAYLRTDDDLWVVMEFMEGGSLTDIIENSPTNDNSHSPLTEPQIAYIVRETCQGLKFLHDKHIIHRDIKSDNVLLDTRARVKITDFGFCARLTDKRSKRATMVGTPYWMAPEVVKQREYDEKIDVWSLGIMTIEMLEGEPPYLNEDPLKALYLIATNGTPKLKHPESLSLEIKRFLSVCLCVDVRYRASTEELLHHGFFNMACDPKDLTSLLEWKE
For the molecule B2, the binding entry in assay [1] is recorded as “binds”; in assay [2], “no binding (condition: during PCDIII (abscission))”; in assay [3], “no binding”; in assay [4], “binds”; in assay [5], “binds”.

B3: Cla4_(1-471F15A AA/PP F451L) 9xMyc (domain or fragment, UniProt P48562 1-471)
chain: MSLSAAANKISDNDAQNIGPAARPASSNSQGRTCYNQTQPITKLMSQLDLTSASHLGTSTSKKKSGWVSYKDDGILSFIWQKRYLMLHDSYVALYKNDKQNDDAILKIPLTSIISVSRTQLKQYCFELVRCSDRNSVSSGSSSSLNVSSDSNSKKSIYIATKTESDLHSWLDAIFAKCPLLSGVSSPTNFTHKVHVGFDPETGSFVGMPTNWEKLLKHSRITGEDWNNNSAAVIQVLQFYQEYNGAGNPTNTLDKPQSGETSSSQKSLPNSYNDNKLRNNSVNSKSSSGVSSSMVSQRKTSQPPNTKSPVSLGSGSLPPINTKLPTSQSNIPRHLQNVPNQQYPKMRNGHSPTNGQFPRGPMHPNNSQRSLQQQQQQQQQQKQQHQQYPYHHQGPSPSPSPSPSPLNPYRPHHNMINPYSKQPQSPLSSQSTQNQAIPRYAQNSSPTAAHLQPQRTAPKPPISAPRAPYPS
As for B3, in the assay with GST-Nbp2 (S. cerevisiae), the binding result is recorded as “binds”.

B4: Nub-Cdc24 (protein, UniProt P11433 1-854)
chain: MAIQTRFASGTSLSDLKPKPSATSISIPMQNVMNKPVTEQDSLFHICANIRKRLEVLPQLKPFLQLAYQSSEVLSERQSLLLSQKQHQELLKSNGANRDSSDLAPTLRSSSISTATSLMSMEGISYTNSNPSATPNMEDTLLTFSMGILPITMDCDPVTQLSQLFQQGAPLCILFNSVKPQFKLPVIASDDLKVCKKSIYDFILGCKKHFAFNDEELFTISDVFANSTSQLVKVLEVVETLMNSSPTIFPSKSKTQQIMNAENQHRHQPQQSSKKHNEYVKIIKEFVATERKYVHDLEILDKYRQQLLDSNLITSEELYMLFPNLGDAIDFQRRFLISLEINALVEPSKQRIGALFMHSKHFFKLYEPWSIGQNAAIEFLSSTLHKMRVDESQRFIINNKLELQSFLYKPVQRLCRYPLLVKELLAESSDDNNTKELEAALDISKNIARSINENQRRTENHQVVKKLYGRVVNWKGYRISKFGELLYFDKVFISTTNSSSEPEREFEVYLFEKIIILFSEVVTKKSASSLILKKKSSTSASISASNITDNNGSPHHSYHKRHSNSSSSNNIHLSSSSAAAIIHSSTNSSDNNSNNSSSSSLFKLSANEPKLDLRGRIMIMNLNQIIPQNNRSLNITWESIKEQGNFLLKFKNEETRDNWSSCLQQLIHDLKNEQFKARHHSSTSTTSSTAKSSSMMSPTTTMNTPNHHNSRQTHDSMASFSSSHMKRVSDVLPKRRTTSSSFESEIKSISENFKNSIPESSILFRISYNNNSNNTSSSEIFTLLVEKVWNFDDLIMAINSKISNTHNNNISPITKIKYQDEDGDFVVLGSDEDWNVAKEMLAENNEKFLNIRLY
In the case of B4, the binding entry in assay [1], in assay [2], in assay [3], in assay [4] and in assay [5] was “binds” throughout.

These data come from PMC7409549, “A time-resolved interaction analysis of Bem1 reconstructs the flow of Cdc42 during polar growth” (Life Science Alliance, 2020).
